Assay results: PubChem BioAssay AID624417 (National Center for Advancing Translational Sciences (NCATS), 2012)
The whole screen tested about 410,000 compounds, of which about 6,400 (1.6%) were called active. The shares of active, inactive and inconclusive entries below differ from those in the screen. The call rests on the fitted dose curve; in most records, active means well fitted inhibition curve with a large enough effect; inconclusive means small, poorly fitted or top-dose-only effect; inactive means no such curve, though single readings can be large or run the other way. Where the call is inconclusive, the potency comes from a doubtful curve fit.

biological target: Glucagon-like peptide 1 receptor (Homo sapiens) (UniProt P43220); assay: qHTS of GLP-1 Receptor Inverse Agonists (Inhibition Mode); conditions: HEK293 GLP-1R CRE-luciferase, luminescence, 24 h, GLP-1R form is constitutively active; series mostly up to 38.3 µM; further: nearly all actives have a fitted effect of over 55% in size
Sequence of UniProt P43220 (P43220 whole entry, looked up): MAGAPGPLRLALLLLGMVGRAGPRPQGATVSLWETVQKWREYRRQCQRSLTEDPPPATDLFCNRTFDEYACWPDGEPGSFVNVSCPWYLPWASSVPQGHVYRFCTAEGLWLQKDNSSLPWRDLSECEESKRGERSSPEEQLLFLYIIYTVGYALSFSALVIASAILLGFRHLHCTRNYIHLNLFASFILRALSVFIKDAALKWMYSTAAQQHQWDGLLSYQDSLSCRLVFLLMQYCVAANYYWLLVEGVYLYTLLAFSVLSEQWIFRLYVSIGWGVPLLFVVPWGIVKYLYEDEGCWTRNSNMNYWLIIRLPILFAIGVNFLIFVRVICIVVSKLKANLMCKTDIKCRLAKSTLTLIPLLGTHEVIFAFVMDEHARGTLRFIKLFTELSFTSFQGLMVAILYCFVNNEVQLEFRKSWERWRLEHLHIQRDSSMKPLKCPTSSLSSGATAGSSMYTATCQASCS
In short: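 Inverse agonists were sought by their lowering of basal cAMP reporter luciferase output in HEK293 cells stably carrying constitutively active human GLP-1R, after 24 h compound treatment.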
Potency means the concentration at half of the fitted maximal effect; tags describe the fitted curve by direction and shape.

Potency, inconclusive:
CSc1ccccc1NC(=O)Nc1ccc(Cl)cc1 28.2 µM [inhibitor, single point], CN(C)c1ccc(/C=C/c2nc3ccccc3s2)cc1 11.2 µM [inhibitor, partial curve, poor fit], COc1cccc(OC)c1OCCN1CCN(C(c2ccccc2)c2ccccc2)CC1 12.6 µM [inhibitor, partial curve, poor fit], Cc1ccc(S(=O)(=O)N2CCN(C(=O)COC(=O)C3(C)CC3(Cl)Cl)CC2)c(C)c1 (configuration not stated) 28.2 µM [inhibitor, single point], CC(C)(C)c1cc(CCC(=O)NCCc2ccccn2)cc(C(C)(C)C)c1O 8.91 µM [inhibitor, partial curve], CCc1nc2ccc(C(=O)Nc3cccc(NS(C)(=O)=O)c3)cn2c1N(CCC(C)C)CCN(C)C 20 µM [inhibitor, single point], CC(C)(C)n1nnnc1C(c1ccccn1)N(Cc1ccccc1)Cc1ccc(Cl)cc1 (configuration not stated) 28.2 µM [inhibitor, single point], CCNC(=S)NN(c1ccccc1)c1ccccc1 11.2 µM [inhibitor, partial curve, poor fit], O=C(c1cccc(F)c1)N1CCc2ccccc21 22.4 µM [inhibitor, single point], COc1ccc(NC(=O)Cc2ccc(Cl)cc2)cc1NC(=O)c1ccco1 12.6 µM [inhibitor, single point], Fc1cccc(F)c1-n1c(CN2CCCC2)csc1=S 3.16 µM [inhibitor, partial curve, poor fit], Cc1onc(-c2c(Cl)cccc2Cl)c1C(=O)OCC(=O)c1ccccc1 10 µM [inhibitor, partial curve, poor fit], O=C(CN1C(=O)S/C(=C\c2ccc(Cl)cc2)C1=O)NCCCn1ccnc1 2.24 µM [inhibitor, full curve], CCN(CC)C(=O)C1CCCN(c2ncnc3c2cnn3-c2cccc(C)c2)C1 (configuration not stated) 25.1 µM [inhibitor, partial curve, poor fit], CCC(C(=O)OCC(=O)C1(O)CCC2C3CCC4=CC(=O)CCC4(C)C3C(O)CC21C)C(C)C (configuration not stated) 3.98 µM [inhibitor, partial curve, poor fit], CC1(C)C=Cc2c(c3c(c4c(=O)c(-c5ccc(O)cc5)coc24)OC(C)(C)CC3)O1 28.2 µM [inhibitor, single point], CCOc1ccc(S(=O)(=O)N2CCN=C2c2ccccc2)cc1 11.2 µM [inhibitor, partial curve, poor fit], CC(C)[C@H](NS(=O)(=O)c1ccccc1)C(=O)OCC(=O)NC(=O)NC1CCCCC1 11.2 µM [inhibitor, single point], CC1CN(S(=O)(=O)c2ccc(C(=O)Nc3nnc(-c4ccc5c(c4)CCCC5)o3)cc2)CC(C)O1 (configuration not stated) 28.2 µM [inhibitor, single point], COc1ccccc1Cc1c(-c2ccc(Cl)cc2)nc2ccc(Br)cn12 20 µM [inhibitor, single point], COc1ccc(-c2cn(-c3ccc(Cl)cc3)c3[n+]2CCCCC3)cc1 11.2 µM [inhibitor, partial curve, poor fit], O=C(c1ccccc1)N1CCC(CC2CC(c3cccc(Br)c3)=NO2)(C(=O)NCC2CCCCC2)CC1 (configuration not stated) 22.4 µM [inhibitor, single point], CN(c1ccc(OCC(=O)Nc2cc(Cl)ccc2C(=O)O)cc1)S(=O)(=O)c1ccc(F)cc1 11.2 µM [inhibitor, partial curve, poor fit], Cc1cc(C(C)(C)C)oc1C(=O)NCCCNC(=O)c1oc(C(C)(C)C)cc1C 2.51 µM [inhibitor, partial curve, poor fit], CC(C)CC1C(=O)N(Cc2cn(CCC3OCCCO3)nn2)CCS(=O)(=O)N1Cc1ccc(-c2ccc(F)cc2)cc1 (configuration not stated) 15.8 µM [inhibitor, single point], O=C(c1ccccc1)C(CCc1ccccn1)CCc1ccccn1 5.62 µM [inhibitor, full curve, poor fit], O=S(=O)(c1ccc(Cl)s1)N1CCCc2cccc(O)c21 14.1 µM [inhibitor, single point], Cc1ccc(Cl)cc1NS(=O)(=O)c1ccc2c(c1)NC(=O)CCS2 11.2 µM [inhibitor, single point], O=C(NC1CCCCC1)C(c1ccco1)N(CCc1ccccc1)C(=O)C(F)(F)F (configuration not stated) 4.47 µM [inhibitor, full curve], Cc1ccc(N(Cc2ccc([N+](=O)[O-])cc2)C(=O)c2ccco2)cc1C 28.2 µM [inhibitor, single point], O=C(COc1ccc(Cl)cc1)NCCC1=CCCCC1 31.6 µM [inhibitor, partial curve, poor fit], CCOC(=O)Oc1ccc2c(c1)C(C)=CC(C)(C)N2C(=O)OCC 31.6 µM [inhibitor, single point], CCOC(=O)N1CCN(C(=O)C[C@@H]2C[C@@]3(C(=O)OCC)CCC=C3N(Cc3cccc4ccccc34)C2=O)CC1 28.2 µM [inhibitor, single point], Cc1c(NC(=O)c2cc(S(=O)(=O)N3CCCCC3)ccc2Cl)c(=O)n(-c2ccccc2)n1C 2.24 µM [inhibitor, partial curve, poor fit], COc1ccc(OC)c(CCNC(=O)CCc2cn(Cc3cc(C)ccc3C)c3ccccc23)c1 11.2 µM [inhibitor, partial curve, poor fit], O=C(CCCOc1ccccc1)N1CCN(c2ccccc2)CC1 28.2 µM [inhibitor, single point], O=C(Nc1ccc(Br)cc1)C1CCN(C(=O)c2ccco2)CC1 10 µM [inhibitor, partial curve, poor fit], CC1Cc2cc(S(=O)(=O)CCC(=O)NCc3ccc(Cl)cc3)ccc2N1C(=O)C1CC1 (configuration not stated) 5.01 µM [inhibitor, full curve, poor fit], OC(COc1ccc2cc(Br)ccc2c1)CN1CCOCC1 (configuration not stated) 20 µM [inhibitor, single point], CC(C)CNC(=O)NC(=O)COc1c(F)c(F)cc(F)c1F 28.2 µM [inhibitor, single point], OCCNCCCCOc1cccc(Br)c1 8.91 µM [inhibitor, partial curve, poor fit], O=C(CC1c2ccccc2C=C(c2ccsc2)N1c1ccc(-c2cccnc2)cc1)C1CC1 (configuration not stated) 10 µM [inhibitor, partial curve, poor fit], CCC(C)c1ccc(S(=O)(=O)N2CCN3CCCC3C2)cc1 (configuration not stated) 11.2 µM [inhibitor, partial curve, poor fit], COc1ccc(Cl)cc1NS(=O)(=O)c1c(C)[nH]c(C)c1C(=O)N1CCCCC1 14.1 µM [inhibitor, single point], COc1ccc(NC(=O)c2sc3ncnc(N4CCN(c5ccccn5)CC4)c3c2C)cc1Cl 3.16 µM [inhibitor, partial curve, poor fit], COc1ccc(Cl)cc1NC(=O)C/C(C)=N/NC(=O)COc1ccc(C)cc1 20 µM [inhibitor, single point], C=CCCCCCCCCc1nc(=S)[nH][nH]1 28.2 µM [inhibitor, single point], CN(CC(=O)Nc1cccc(F)c1)C(=O)c1ccc(OCc2ccccc2)cc1 10 µM [inhibitor, single point], O=C(NN=Cc1ccccc1O)C(O)(c1ccccc1)c1ccccc1 2.51 µM [inhibitor, full curve]

Potency, inactive:
Cc1ccc(C=Nc2ccccc2C(N)=O)o1, CCCCNC(=O)Cn1c(=O)n(C)c2ccccc21, CCOC(=O)C1(Cc2cccc(Cl)c2)CCCN(C(=O)c2cnn(CC)c2)C1 (configuration not stated), O=C(C[C@@H]1C/C=C/CC[C@H](Cc2ccc(F)cc2)C(=O)O[C@H](c2ccccc2)CNC1=O)NCCO, Cc1ccc(/C=N/NC(=O)CNC(=O)c2cccs2)cc1, CCC(=O)Nc1cccc(C(=O)OCC(=O)c2ccccc2Cl)c1, CC(C)CN(C(=O)Cn1nnc(-c2ccc(Cl)cc2)n1)C1CCS(=O)(=O)C1 (configuration not stated), O=S(=O)(Nc1ncccn1)c1ccc(NC(=S)NCCc2ccc(Cl)cc2)cc1, O=C(NCCCOc1ccc([N+](=O)[O-])cc1Cl)OCc1ccccc1, COc1ccccc1-c1nc(C(N)=O)c2[nH]c(=O)n(-c3cccc(C)c3)c2n1, COC(=O)c1cc(NS(=O)(=O)c2ccc3c(c2)CCC(=O)N3)cc(C(=O)OC)c1, CCCn1c(=O)c2sccc2n2c(CCCC(=O)NC3CCC(C)CC3)nnc12 (configuration not stated)

Potency, active:
COC(=O)c1sccc1NC(=O)CSc1ccccc1NS(=O)(=O)c1ccc(Cl)cc1 10 µM
